According to the supplement of paper PMC10723795:
Where a name gives a salt, the structure may show the parent alone. This is one part of the list.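 The calls were made as follows: active = more than 2 SD below the DMSO mean: under 0.85 at 10 µM or 0.885 at 1 µM; inactive = the rest.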 Repeats are few or missing, and single values can be far off.

Test system: RPE1
Experiment: nucleolar normality score relative to DMSO (fraction of DMSO control); RPE1 is a non-cancer human cell line; higher = more normal nucleoli (less nucleolar stress)
Settings: 24 h
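Also: fixed cells immunolabelled for nucleolin and UBF, 40 image fields per well in 384-well plates, per-cell score = nucleolin nucleolar/nucleoplasm intensity ratio divided by the matching UBF ratio.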

| SMILES | nucleolar normality score (1 µM) | nucleolar normality score (10 µM) |
| --- | --- | --- |
| NC1(c2ccc(-c3nc4ccn5c(=O)[nH]nc5c4cc3-c3ccccc3)cc2)CCC1 | inactive: 0.976 | inactive: 1.02 |
| CN(C)CCCNC(=O)c1ccc(-c2cc(O)c3ncccc3c2)cc1 | inactive: 1.01 | inactive: 1.07 |
| CC1(C)OC(=O)C=C[C@]2(C)[C@H]3CC[C@@]4(C)[C@H](c5ccoc5)OC(=O)[C@H]5O[C@]54[C@]3(C)C(=O)C[C@@H]12 [Obacunone] | inactive: 0.985 | inactive: 0.863 |
| O=c1[nH]cc(F)c(=O)[nH]1 [Fluorouracil (5-Fluoracil, 5-FU)] | inactive: 1.03 | inactive: 1.06 |
| CNC(=O)c1ccc2cc([C@@]3(O)CCn4cncc43)ccc2c1 [TAK-700 (Orteronel)] | inactive: 0.94 | inactive: 1.02 |
| N=c1ccn2c(n1)O[C@H]1[C@H](O)[C@@H](CO)O[C@H]12 [Cyclocytidine HCl] | active: 0.856 | inactive: 0.872 |
| COc1cc2c(cc1OC)-c1cc3ccc(OC)c(OC)c3c[n+]1CC2 [Palmatine] | inactive: 1.03 | inactive: 1.04 |
| C=CCc1ccc(O)c(-c2ccc(O)c(CC=C)c2)c1 [Honokiol] | inactive: 1.04 | inactive: 0.907 |
| Cc1cc(-c2nc(-c3ccc(OC(F)(F)F)cc3)no2)nn1Cc1ccnc(N2CCN(C3CC3)CC2)c1 | inactive: 0.98 | inactive: 1.03 |
| CSc1cccc(Nc2ncc3cc(-c4c(Cl)cccc4Cl)c(=O)n(C)c3n2)c1 | inactive: 1.03 | active: 0.802 |
| O=c1c(-c2ccc(O)cc2)coc2cc(O)cc(O)c12 [Genistein] | inactive: 1.09 | inactive: 1.13 |
| OCc1ccc(-c2ccc(-c3ccc(CO)s3)o2)s1 | inactive: 0.962 | active: 0.84 |
| O=C(O)c1ccc(Nc2ncc3c(n2)-c2ccc(Cl)cc2C(c2c(F)cccc2F)=NC3)cc1 | inactive: 1.01 | inactive: 1.02 |
| Cc1nc(Nc2n[nH]c3c2CN(C(=O)N[C@H](CN(C)C)c2ccccc2)C3(C)C)c2sccc2n1 | inactive: 1.02 | active: 0.817 |
| CCn1cc(-c2ccnc3[nH]c(-c4cccc(CN(C)C)c4)cc23)c(-c2ccc(NC(=O)N(C)C)cc2)n1 | inactive: 0.965 | active: 0.818 |
| CCC(=O)NS(=O)(=O)c1ccc(-c2c(-c3ccccc3)noc2C)cc1 [Parecoxib Sodium] | inactive: 1.03 | inactive: 1.06 |
| CCOc1ccn(-c2ccc(F)cc2)c(=O)c1C(=O)Nc1ccc(Oc2ccnc(N)c2Cl)c(F)c1 | inactive: 0.982 | inactive: 1.02 |
| Oc1ccc(Nc2nc(-c3ccc(Cl)cc3)cs2)cc1 | inactive: 0.91 | inactive: 1.04 |
| Cc1ccc(C(=O)NCCCCCC(=O)Nc2ccccc2N)cc1 | inactive: 1.09 | inactive: 1.05 |
| COc1cc2ncnc(Nc3ccc(Cl)cc3F)c2cc1OC | inactive: 1.05 | inactive: 0.927 |

| SMILES | nucleolar normality score (1 µM) | nucleolar normality score (10 µM) |
| --- | --- | --- |
| N[C@@H]1CCCN(c2c(/C=C3\SC(=O)NC3=O)cccc2-c2ccccc2)C1 | inactive: 0.948 | active: 0.792 |
| CO[C@H]1C[C@@H]2CC[C@@H](C)[C@@](O)(O2)C(=O)C(=O)N2CCCC[C@H]2C(=O)O[C@H]([C@H](C)C[C@@H]2CC[C@@H](O)[C@H](OC)C2)CC(=O)[C@H](C)/C=C(\C)[C@@H](O)[C@@H](OC)C(=O)[C@H](C)C[C@H](C)/C=C/C=C/C=C/1C [Rapamycin (Sirolimus)] | active: 0.862 | inactive: 0.899 |
| Cc1[nH]c(/C=C2\C(=O)Nc3ccccc32)c(C)c1CCC(=O)O [Orantinib (TSU-68, SU6668)] | active: 0.88 | inactive: 0.944 |
| COc1cc2c(=O)c(-c3ccc(O)cc3)coc2cc1O[C@@H]1O[C@H](CO)[C@@H](O)[C@H](O)[C@H]1O [Glycitin] | inactive: 0.975 | inactive: 1.09 |
| CCN(CC)CCCC(C)Nc1c2ccc(Cl)cc2nc2ccc(OC)cc12 (stereo not drawn) [Quinacrine 2HCl] | active: 0.318 | active: 0.218 |
| COc1cc(OC)cc(N(CCNC(C)C)c2ccc3ncc(-c4cnn(C)c4)nc3c2)c1 | inactive: 1.01 | inactive: 1 |
| C[C@@H](N)[C@H]1CC[C@H](C(=O)Nc2ccncc2)CC1 | inactive: 1.03 | inactive: 1.09 |
| CC(C)n1nc(-c2cc3cc(O)ccc3[nH]2)c2c(N)ncnc21 [Torkinib (PP242)] | inactive: 0.992 | inactive: 0.955 |
| C=CC(=O)N1CCN(C(=O)CNc2cc(I)c(Cl)cc2O)CC1 [K-Ras(G12C) inhibitor 12] | inactive: 1.02 | inactive: 1.02 |
| Cc1ccccc1CN1C(=O)C2=C(CCN(Cc3ccccc3)C2)N2CCN=C12 | inactive: 0.944 | inactive: 1.08 |
| O=C(CCCCCCNC(=O)c1cnc(N(c2ccccc2)c2ccccc2)nc1)NO [Ricolinostat (ACY-1215)] | inactive: 1.01 | inactive: 1.01 |
| CC(C)CC(=O)Nc1n[nH]c2c1CN(C(=O)C1CCN(C)CC1)C2(C)C | inactive: 1.02 | inactive: 0.986 |
| O=C(NCCS(=O)(=O)c1ccc(C(F)(F)F)cn1)c1ccc(Cl)cc1 | inactive: 1.05 | inactive: 1.07 |
| CC(=O)N1c2ccc(-c3ccc(C(=O)O)cc3)cc2[C@H](Nc2ccc(Cl)cc2)C[C@@H]1C | inactive: 1.07 | inactive: 1.1 |
| O=C1CN2Cc3c(ccc(Cl)c3Cl)N=C2N1 [Anagrelide HCl] | inactive: 0.996 | inactive: 1.07 |
| Nc1nc(Cl)nc2c1ncn2[C@@H]1O[C@H](CO)[C@@H](O)[C@@H]1F [Clofarabine] | inactive: 0.985 | inactive: 0.902 |
| CN1CC[C@H](c2c(O)cc(O)c3c(=O)cc(-c4ccccc4Cl)oc23)[C@H](O)C1 [Flavopiridol HCl] | active: 0.175 | active: 0.133 |
| Cc1ccc(C(=O)Nc2ccc(CN3CCN(C)CC3)c(C(F)(F)F)c2)cc1C#Cc1cnc2cccnn12 | inactive: 0.915 | active: 0.779 |
| O=C1Nc2ccc(CN3C(=O)CSC3=O)cc2/C1=C/c1cc(CN2CCOCC2)c[nH]1 | inactive: 1.01 | inactive: 0.983 |
| CC(C)[C@H]1C(=O)N[C@@H](CCCNC(=N)N)C(=O)NCC(=O)N[C@@H](CC(=O)O)C(=O)N[C@H](Cc2ccccc2)C(=O)N1C [Cilengitide trifluoroacetate] | inactive: 1 | active: 0.804 |

| SMILES | nucleolar normality score (1 µM) | nucleolar normality score (10 µM) |
| --- | --- | --- |
| O=C1CCc2c(Oc3ccc4c(c3)[C@@H]3[C@H](O4)[C@H]3c3nc4cc(C(F)(F)F)ccc4[nH]3)ccnc2N1 [Lifirafenib (BGB-283)] | inactive: 1.04 | inactive: 1.12 |
| O=C(c1cccc(Cl)c1F)N1CCN(Cc2cccc(Nc3nccs3)n2)CC1 | inactive: 1.06 | inactive: 0.906 |
| CCN(CC)c1ccc(C=NNC(=O)c2ccc(O)cc2)cc1 | inactive: 0.977 | inactive: 1 |
| NCCOc1cc(C(=O)Nc2cc(OCCN)c3ccccc3n2)nc(C(=O)Nc2cc(OCCN)c3ccccc3n2)c1 [Pyridostatin Trifluoroacetate Salt] | inactive: 0.927 | inactive: 1.02 |
| CO/N=C(\C(=O)N[C@@H]1C(=O)N2C(C(=O)O)=C(CSc3nc(=O)c(O)nn3C)CS[C@H]12)c1csc(N)n1 [Ceftriaxone Sodium] | inactive: 0.999 | inactive: 0.968 |
| COc1cc(OC)c2c(=O)[nH]c(-c3cc(C)c(OCCO)c(C)c3)nc2c1 [Apabetalone (RVX-208)] | inactive: 0.991 | inactive: 1.01 |
| COc1cccc(NC(=O)/C=C/c2ccc(Cl)cc2)c1 | inactive: 0.968 | inactive: 0.976 |
| Cc1nc(NC(=O)N2CCC[C@H]2C(N)=O)sc1-c1csc(C(C)(C)C)n1 | inactive: 1 | inactive: 0.891 |
| O=C(Nc1c[nH]nc1-c1nc2ccc(CN3CCOCC3)cc2[nH]1)NC1CC1 | active: 0.851 | active: 0.802 |
| Cn1cc(-c2ccc(F)c(C(F)(F)F)c2)nc1C1CCN(c2ncnc3[nH]ncc23)CC1 | inactive: 1.05 | inactive: 1.06 |
| C[C@@H]1CN(C(=O)c2ccc(NC(=O)c3cc(O[C@H](C)c4c(Cl)ccc(F)c4Cl)c(N)nn3)cc2)C[C@H](C)N1 [Ensartinib (X-396)] | inactive: 1.05 | inactive: 1.06 |
| CC(C)(C)Cn1c(N)nc2ccc(-c3[nH]c(C(C)(C)C)nc3-c3ccc(F)cc3)nc21 | inactive: 1.07 | inactive: 1.08 |
| COc1ccc(C(=O)CC2(O)C(=O)Nc3c(Cl)ccc(Cl)c32)cc1 (stereo not drawn) | inactive: 1.1 | inactive: 1.07 |
| CC(=O)c1ccc(S(=O)(=O)NC(=O)NC2CCCCC2)cc1 [Acetohexamide] | inactive: 0.997 | inactive: 1.05 |
| Nc1ncn([C@@H]2O[C@H](CO)[C@@H](O)[C@H]2O)c(=O)n1 [Azacitidine] | inactive: 0.976 | inactive: 1.04 |
| O=C(Nc1ccc(OC(F)(F)F)cc1)c1sccc1NCc1ccnc2ccccc12 | inactive: 0.948 | inactive: 0.951 |
| CCCCCCCCCCCCCCCCCCOP(=O)([O-])OC1CC[N+](C)(C)CC1 [Perifosine (KRX-0401)] | inactive: 1.02 | inactive: 1.12 |
| COc1cc2c(Oc3ccc4[nH]c(C)cc4c3F)ccnc2cc1OCC1(N)CC1 [Anlotinib (AL3818) dihydrochloride] | inactive: 0.964 | inactive: 0.968 |
| CC(C)(C)c1[nH]cnc1/C=c1\[nH]c(=O)/c(=C/c2ccccc2)[nH]c1=O [Plinabulin (NPI-2358)] | inactive: 0.961 | inactive: 0.971 |
